# Test results from PubChem BioAssay (Tox21).
# Values joined by “and” are separate entries in the source; they are usually repeats but may differ in a detail not shown here. Identical values can stand only once. Inconclusive means that the source gave no clear call. Such entries were picked first, then a sample of the others. For some assays here: Potencies of inconclusive entries are doubtful fits and often do not repeat. Where a structure was tested more than once in an assay, its records may differ in their call. Active and inactive are the calls of the source. Unless noted, calls follow the shape of the dose curve; as a rule, active = well fitted curve in the direction sought with a large enough effect in the repeat runs; inconclusive = weak or mixed curves; inactive = no such curve, though single readings can be large; an effect the other way counts as inactive or inconclusive.
# Assays:
# [1] = target: Nuclear receptor subfamily 1 group I member 3 (Homo sapiens) (UniProt Q14994); test: qHTS assay to identify small molecule agonists of the constitutive androstane receptor (CAR) signaling pathway (AID 1224839); also: nearly all actives have a fitted effect of over 15% in size
# How it was run: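 Using human hepatoma HepG2 cells engineered with hCAR and a CYP2B6-2.2kb reporter, 15-concentration compound series were incubated 24 h alongside PK11195 at 0.75 uM final, with luminescence quantified afterwards.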
# [2] = qHTS assay to identify small molecule antagonists of the estrogen related receptor signaling pathway with the pleiotropic PPARgamma coactivator (PGC) from Tox21 10K library - cell viability counter screen (AID 1224840; active = well fitted cell-killing curve with a large enough effect in the repeat runs, not every such curve was filed as active; inconclusive = weak or mixed curves, or effect the other way; inactive = no such curve, though single readings can be large or run the other way; also: nearly all actives have a fitted effect of over 40% in size)
# How it was run: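 Multiplexed viability counter screen in the PGC/ERR cell line: cells treated with DMSO-dissolved compounds for 17.5 hours at 37 C, then viability measured as CellTiter-Fluor fluorescence.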
# [3] = qHTS assay to identify small molecule antagonists of the estrogen related receptor signaling pathway with the pleiotropic PPARgamma coactivator (PGC) from Tox21 10K library (AID 1224841; call rule not given here; also: actives are mostly falling curves and most rising ones were filed inactive; nearly all actives have a fitted effect of over 50% in size)
# How it was run: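 Steps: plate 2,000 PGC/ERR cells per well; incubate 6 h at 37 C with 5% CO2; transfer compounds from DMSO stocks by pin tool; incubate 18 h at 37 C; add One-Glo; measure luminescence 30 min later.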
# [4] = qHTS assay to identify small molecule agonists of the hypoxia (HIF-1) signaling pathway - cell viability counter screen (AID 1224844; calls by dose curve; also: nearly all actives have a fitted effect of over 50% in size)
# How it was run: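 Cytotoxicity was measured in parallel with the HRE-driven beta-lactamase readout: after 17 hrs of compound exposure at 37C, HRE-bla ME-180 cells received CellTiter-Glo and luminescence was recorded 30 min later.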
# [5] = qHTS assay to identify small molecule agonists of H2AX (AID 1224845; active = well fitted activation curve with a large enough effect in the signal ratio in the repeat runs, not every such curve was filed as active; inconclusive = weak or mixed curves; the % refers to the signal ratio); conditions: CHO-K1 phospho-H2AX Ser139 HTRF, 3 h; activation (H2AX phosphorylation): at 154 µM (top of the series)
# How it was run: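 Wild-type CHO-K1 cells plated overnight, then exposed 3 hr at 37C to compounds at 15 concentrations (0.76% DMSO). Lysed, then HTRF anti-pH2AX(S139)-cryptate/anti-H2AX-d2 detection after 24 hr at room temperature; emissions 665 and 620 nm.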
# [6] = qHTS assay to identify small molecule agonists of the hypoxia (HIF-1) signaling pathway (AID 1224846; active = well fitted activation curve with a large enough effect in the signal ratio in the repeat runs, not every such curve was filed as active; inconclusive = weak or mixed curves; the % refers to the signal ratio); conditions: HRE-bla ME-180 cells, beta-lactamase ratio, 17 h; activation: at 76.8 µM (top of the series) unless noted
# How it was run: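 Compounds from the Tox21 10K library, dissolved in DMSO, are tested for induction of a hypoxia response element–controlled beta-lactamase reporter in ME-180 cells. Exposure lasts 17 hrs at 37C after a 5 hr settling period, followed by CCF4-AM FRET substrate.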
# [7] = qHTS assay to identify small molecule antagonists of the estrogen related receptor (ERR) signaling pathway from Tox21 library (AID 1224848); also: nearly all actives have a fitted effect of over 50% in size
# How it was run: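 Tox21 10K compounds in DMSO tested for ERR pathway antagonism in NTP's ERR cell line; 18 h, 37 C exposure; ONE-Glo luminescence.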
# [8] = target: Nuclear receptor subfamily 1 group I member 3 (Homo sapiens) (UniProt Q14994); test: qHTS assay to identify small molecule antagonists of the constitutive androstane receptor (CAR) signaling pathway (AID 1224838);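 also: HepG2 cells stably expressing hCAR with CYP2B6 luciferase reporter stimulated by CITCO; nearly all actives have a fitted effect of over 40% in size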
# How it was run: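 Antagonist mode used CITCO at a final 50 nM to activate CAR in human hepatoma HepG2 cells carrying stable hCAR and a 2.2 kb CYP2B6 promoter-luciferase construct. Compounds were tested at 15 concentrations over 24 h, with luminescence as the end point.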
# [9] = target: Thyrotropin receptor (Homo sapiens) (UniProt P16473); test: qHTS assay to identify small molecule agonists of the thyroid stimulating hormone receptor (TSHR) signaling pathway (AID 1224843; calls by dose curve; also: nearly all actives have a fitted effect of over 45% in size; as to activation: % is scaled to controls: 0 for no effect and ±100 for the full control effect); conditions: TSHR-HEK293 cells, cAMP HTRF, agonist mode, 30 min; activation: at 92.4 µM (top of the series) unless noted
# How it was run: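 Using 15 concentrations per compound in triplicate, cAMP production was monitored in TSHR-HEK293 cells after 30 min compound incubation at RT; HTRF reagents followed, with fluorescence intensity recorded after 1 h.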
# [10] = qHTS RealTime-Glo MT Cell Viability Assay in HEK293 cells - 16 hour (AID 1224872); also: nearly all actives have a fitted effect of over 50% in size
# How it was run: (§1)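 Nonlytic real-time viability readout: viable cells convert prosubstrate to NanoLuc substrate, giving luminescence proportional to live cell number. HEK293, 600 cells/well, compound added after 5 h, continuous culture at 37 C.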
# [11] = qHTS RealTime-Glo MT Cell Viability Assay in HepG2 cells - 8 hour (AID 1224873); also: nearly all actives have a fitted effect of over 55% in size
# How it was run: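 HepG2 cells mixed with RealTime-Glo MT reagents (NanoLuc plus cell-permeant prosubstrate) were seeded at 600 cells/well, incubated 5 h at 37 C/5% CO2, then pinned with compounds in DMSO; nonlytic luminescence tracked viability during 40 h treatment.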
# [12] = qHTS RealTime-Glo MT Cell Viability Assay in HEK293 cells - 40 hour (AID 1224874); conditions: RealTime-Glo luminescence; max response: stronger effect = lower value; also: nearly all actives have a fitted effect of over 50% in size
# How it was run: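 Real-time viability in HEK293: signal arises when living cells convert a prosubstrate for NanoLuc in the medium, so luminescence tracks viable cell number. Compound (23 nL, DMSO) added 5 h post-seeding; kinetic reads at 0–40 h, 37 C.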
# [13] = qHTS assay to identify small molecule agonists of H2AX - cell viability counter screen (AID 1224847; calls by dose curve; also: nearly all actives have a fitted effect of over 30% in size)
# How it was run: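 After overnight plating of 1000 CHO-K1 cells per well, a 15-concentration compound series was applied for 3 hr at 37C. Luminescence from CellTiter-Glo, read following 30 min at room temperature, reflected cell viability.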
# [14] = qHTS RealTime-Glo MT Cell Viability Assay in HepG2 cells - 24 hour (AID 1224867); also: nearly all actives have a fitted effect of over 50% in size
# How it was run: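 Luminescence read-out: viable HepG2 cells reduce a prosubstrate to a NanoLuc substrate, giving a signal proportional to live cell number. Reads taken at 0, 8, 16, 24, 32 and 40 h of compound exposure at 37 C.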
# [15] = qHTS RealTime-Glo MT Cell Viability Assay in HEK293 cells - 32 hour (AID 1224868); also: nearly all actives have a fitted effect of over 50% in size
# How it was run: as §1
# [16] = A CellTox Green Cytotoxicity Assay to monitor cytotoxicity in HEK293 cells - 40 hour (AID 1224871); also: nearly all actives have a fitted effect of over 45% in size
# How it was run: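 Cells (HEK293, 600/well) and dye reagent are dispensed together. After 5 h at 37 C, 23 nL compound is pinned in. Plates stay at 37 C for 40 h with fluorescence read at 0h, 8h, 16h, 24h, 32h and 40h.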
# [17] = qHTS assay to identify small molecule agonists of the estrogen related receptor signaling pathway with the pleiotropic PPARgamma coactivator (PGC) from Tox21 10K library (AID 1224842); also: nearly all actives have a fitted effect of over 15% in size
# How it was run: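 PGC/ERR reporter cells (NTP line) were seeded 2,000 per well, rested 6 h at 37 C/5% CO2, then pin-dosed with compounds in DMSO for 18 h at 37 C; luciferase read by One-Glo luminescence after 30 min at room temperature.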
# Potency is read from the fitted curve at half-maximal effect; tags tell the direction and shape of the fitted curve or compound fluorescence and quenching.
# Sequence of UniProt P16473 (P16473 whole entry, looked up): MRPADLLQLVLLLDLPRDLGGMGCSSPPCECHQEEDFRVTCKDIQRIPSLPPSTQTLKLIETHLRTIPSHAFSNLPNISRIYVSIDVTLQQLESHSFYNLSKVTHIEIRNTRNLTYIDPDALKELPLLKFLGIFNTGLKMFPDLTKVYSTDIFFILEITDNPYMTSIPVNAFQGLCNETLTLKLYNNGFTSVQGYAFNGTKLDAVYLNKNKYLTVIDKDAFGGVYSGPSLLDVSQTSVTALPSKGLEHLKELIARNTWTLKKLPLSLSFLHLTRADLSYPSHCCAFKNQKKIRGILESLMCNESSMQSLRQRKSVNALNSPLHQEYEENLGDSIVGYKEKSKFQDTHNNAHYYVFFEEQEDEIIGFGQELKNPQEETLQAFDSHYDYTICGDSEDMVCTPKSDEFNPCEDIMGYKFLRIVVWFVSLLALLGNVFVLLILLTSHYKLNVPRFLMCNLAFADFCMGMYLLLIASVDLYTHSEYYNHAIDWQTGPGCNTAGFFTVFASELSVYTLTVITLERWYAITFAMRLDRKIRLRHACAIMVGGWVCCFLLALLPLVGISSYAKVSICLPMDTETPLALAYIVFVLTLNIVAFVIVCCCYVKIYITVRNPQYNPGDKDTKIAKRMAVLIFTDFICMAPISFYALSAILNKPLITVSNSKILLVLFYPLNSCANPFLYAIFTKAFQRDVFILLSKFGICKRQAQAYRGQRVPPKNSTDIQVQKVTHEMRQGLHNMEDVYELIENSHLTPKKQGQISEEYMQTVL
# Sequence of UniProt Q14994 (Q14994 whole entry, looked up): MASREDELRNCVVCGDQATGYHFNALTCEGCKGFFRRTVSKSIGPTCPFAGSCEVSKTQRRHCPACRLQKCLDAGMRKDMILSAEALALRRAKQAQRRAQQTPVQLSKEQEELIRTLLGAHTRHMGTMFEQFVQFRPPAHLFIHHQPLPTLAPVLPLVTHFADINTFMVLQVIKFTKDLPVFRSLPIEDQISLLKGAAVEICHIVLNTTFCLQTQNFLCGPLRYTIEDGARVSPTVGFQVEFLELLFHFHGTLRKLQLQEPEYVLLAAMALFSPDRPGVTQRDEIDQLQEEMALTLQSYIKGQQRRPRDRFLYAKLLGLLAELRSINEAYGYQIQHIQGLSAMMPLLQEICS
compound,measurement,setting,value
O=C1c2ccccc2C(=O)C1C(=O)C(c1ccccc1)c1ccc(Cl)cc1 (stereo unspecified),Potency,[1],"inconclusive: 68.6 µM [activator, single point]"
same,Potency,[2],inconclusive: 17.2 µM [cytotoxic]
same,Potency,[3],active: 6.11 µM
same,Potency,[4],active: 9.77 µM
same,Potency,[5],"inconclusive: 113 µM [activator, single point]"
same,Potency,[6],"inconclusive: 54.9 µM [falling, single point]"
same,Potency,[7],active: 9.69 µM
CC(C)C1CCC(Cc2ccc(Cl)cc2)C1(O)Cn1cncn1 (stereo unspecified),Potency,[8],"inconclusive: 42.8 µM [inhibitor, single point]"
same,Potency,[9],active: 48.1 µM
same,Potency,[5],"inconclusive: 50 µM [rising, single point]"
same,Potency,[6],inconclusive: 54.4 µM
same,Potency,[7],active: 27 µM
same,Potency,[10],active: 12.2 µM
same,Potency,[11],active: 24.3 µM
same,Potency,[12],active: 10.9 µM
C[C@H]1CCCC(=O)CCC/C=C/c2cc(O)cc(O)c2C(=O)O1,Potency,[8],"inconclusive: 25.2 µM [inhibitor, single point]"
same,Potency,[4],"inconclusive: 53 µM [cytotoxic, single point]"
same,Potency,[6],inconclusive: 47.2 µM
same,Potency,[13],active: 86.5 µM
same,Potency,[14],"inconclusive: 37.5 µM [falling, partial curve, poor fit]"
same,Potency,[15],"inconclusive: 11.3 µM [cytotoxic, partial curve]"
same,Potency,[16],"inconclusive: 47.2 µM [activator, single point]"
same,Potency,[10],"active: 37.5 µM and inconclusive: 12.7 µM [cytotoxic, partial curve]"
same,Potency,[11],"inconclusive: 37.5 µM [falling, partial curve]"
same,Potency,[12],"inconclusive: 12.7 µM [cytotoxic, partial curve]"
COP(=S)(OC)Oc1ccc([N+](=O)[O-])cc1,Potency,[1],"inconclusive: 61.1 µM [activator, partial curve]"
same,Potency,[2],"inconclusive: 43.3 µM [cytotoxic, partial curve] and inconclusive: 54.5 µM [cytotoxic, partial curve, poor fit]"
same,activation,[9],inconclusive: -0.138%
CC1(C)C(/C=C(\Cl)C(F)(F)F)C1C(=O)OC(C#N)c1cccc(Oc2ccccc2)c1 (stereo unspecified),Potency,[8],"inconclusive: 44 µM [inhibitor, partial curve]"
same,Potency,[15],"inconclusive: 49.8 µM [cytotoxic, single point]"
same,Potency,[10],"inconclusive: 39.5 µM [cytotoxic, partial curve, poor fit]"
same,Potency,[12],"inconclusive: 55.8 µM [cytotoxic, single point]"
Oc1ccc(-c2ccccc2)cc1,Potency,[17],"inconclusive: 27.3 µM [activator, single point]"
Cc1ccc(N=C=O)cc1N=C=O,Potency,[17],"inconclusive: 5.45 µM [activator, full curve, poor fit]"
CNP(=O)(OC)Oc1ccc(C(C)(C)C)cc1Cl (stereo unspecified),Potency,[1],active: 48.6 µM
same,Potency,[13],"inconclusive: 56.6 µM [cytotoxic, partial curve, poor fit]"
same,Potency,[15],"inconclusive: 38.9 µM [cytotoxic, partial curve]"
same,Potency,[16],"inconclusive: 54.9 µM [activator, single point]"
same,Potency,[10],"inconclusive: 43.6 µM [cytotoxic, partial curve]"
same,Potency,[12],"inconclusive: 38.9 µM [cytotoxic, partial curve]"
O=[N+]([O-])/C=C/c1ccccc1,Potency,[2],active: 15.6 µM and active: 24.3 µM
same,Potency,[3],"inconclusive: 24.7 µM [falling, full curve, poor fit]"
same,Potency,[17],active: 9.85 µM and active: 13.7 µM
same,Potency,[9],"inactive and inconclusive: 34.4 µM [inhibitor, partial curve]"
same,Potency,[6],"inconclusive: 49.8 µM [falling, partial curve] and inconclusive: 49 µM [falling, partial curve]"
same,Potency,[13],"inconclusive: 36.3 µM [rising, partial curve] and inconclusive: 31.8 µM [rising, partial curve]"
same,Potency,[7],"active: 22 µM and inconclusive: 68.6 µM [inhibitor, single point]"
same,Potency,[16],"inconclusive: 15.7 µM [activator, full curve, poor fit] and inconclusive: 19.5 µM [activator, partial curve, poor fit]"
same,Potency,[10],active: 4.98 µM and active: 12.3 µM
same,Potency,[12],active: 6.27 µM and active: 15.5 µM
O=C(Nc1ccccc1)Nc1ccnc(Cl)c1,Potency,[2],active: 61.1 µM
same,Potency,[3],"inconclusive: 17.2 µM [falling, full curve, poor fit]"
same,Potency,[13],"inconclusive: 113 µM [cytotoxic, single point]"
same,Potency,[7],active: 24.3 µM
same,Potency,[10],"inconclusive: 21.9 µM [cytotoxic, partial curve]"
same,Potency,[12],active: 19.5 µM
